Some of the results follow. At the low end of the ranking, values are background and their order means little. The protein was read in a cell extract, so binding may be indirect.

The experiment deals with T1, HNF4alpha8 (COS-7 nuclear extract) (UniProt P41235-5).
T1 sequence: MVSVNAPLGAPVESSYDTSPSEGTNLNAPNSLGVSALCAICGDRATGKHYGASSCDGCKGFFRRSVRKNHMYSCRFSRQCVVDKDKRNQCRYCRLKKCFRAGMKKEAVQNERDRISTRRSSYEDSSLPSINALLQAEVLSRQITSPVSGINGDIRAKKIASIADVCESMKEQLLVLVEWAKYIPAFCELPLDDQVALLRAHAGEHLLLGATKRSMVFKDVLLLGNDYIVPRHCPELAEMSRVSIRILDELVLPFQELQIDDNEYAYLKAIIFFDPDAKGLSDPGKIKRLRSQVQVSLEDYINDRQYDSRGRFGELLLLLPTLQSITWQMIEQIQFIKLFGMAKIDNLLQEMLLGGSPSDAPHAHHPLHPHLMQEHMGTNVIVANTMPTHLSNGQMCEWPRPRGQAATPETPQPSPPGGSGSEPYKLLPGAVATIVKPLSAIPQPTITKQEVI
In words: protein-binding microarray. The note with it: COS-7 nuclear extract on double-stranded Agilent 4x180k PBM; binding buffer, salt, pH and temperature not given; high values mean tight binding; double strand, one strand shown; sequences stand for … in …GCCTAGGGAGATTAGAGTATCGGTCGA
Take CAACCTCTCCAATGCTATGCTTTTATTTAA: the binding signal (log2 normalized intensity) was -0.995.

For TCTTTCAGAAACAAAGGGGGAGGGAGATAG, the binding signal (log2 normalized intensity) is -1.28.

Regarding ATCTCCACAAACATACAACCATCAAAGGTC, the binding signal (log2 normalized intensity) is 3.47.

In the case of CTTATAGCTCAACCCCCAAAACTGCCTGAT, the binding signal (log2 normalized intensity) was determined as 3.7.

In the case of TTGGAATGCCCTTATCTCATACCTTGCATG, the binding signal (log2 normalized intensity) came out at 1.18.

On to CAACAAAGCATTATCTACACAGTAAGGTGC, for which the binding signal (log2 normalized intensity) is -0.603.

With GTTATCTAAATTAGATATGGCTTATACTTG, the binding signal (log2 normalized intensity) is 0.892.

Consider AAGATAAGCAGCATTCCACCAAATCTTACC, for which the binding signal (log2 normalized intensity) was -1.47.

As to CCGCCCGACTACAACAGCCTTGCAGATAAG, the binding signal (log2 normalized intensity) is -1.43.

For TCAGGTCAGTAGCCCAGGGTCACACAGATG, the binding signal (log2 normalized intensity) worked out at 1.58.

In the case of TTCCATTGTACTCAGTATGTGCTGACTGAC, the binding signal (log2 normalized intensity) came to 0.312.

TTCTATGTTCACATCTCCTCTGGAGGCCAA: the binding signal (log2 normalized intensity) worked out at 1.33.

Turning to TAACCCTACAGTCCTGCCACATCCCCCACA, the binding signal (log2 normalized intensity) was determined as 4.33.

With CCGGGGAAAGGGAAAAAGGGAGATAGGTTA, the binding signal (log2 normalized intensity) is -1.32.

For the sequence GAGAAACTTCTTTGTGATGTGTGGATTCAG, the binding signal (log2 normalized intensity) turned out to be 1.31.

As to CCCCCTTCATCTGGGACGTGGCTCAAGATT, the binding signal (log2 normalized intensity) was 0.804.

On to GATGGATATATGTACAGCTGTGTATGTGGC, for which the binding signal (log2 normalized intensity) turned out to be 1.55.

Take TATAGGGCATACCCTTCCTGCTGACAAACT: the binding signal (log2 normalized intensity) was -1.1.

As to CCAGGAGCAGGATAGAAGGAAACAGTTCAG, the binding signal (log2 normalized intensity) is -1.25.

For CAAGCAATCTGGCTGCAGAGTCCAAGATGC, the binding signal (log2 normalized intensity) was found to be 1.95.

In the case of GTCTAGCGCAAATGATCAAAGGTTGGTTTT, the binding signal (log2 normalized intensity) turned out to be 4.43.

Take TTTGCTTATCTGATAAGTCCATACCTAGTC: the binding signal (log2 normalized intensity) amounted to 1.07.

Consider AACAAGTTCTGCAGACTCCCTAGAAGAGTG, for which the binding signal (log2 normalized intensity) is -1.3.

Take CCAGAAGGAATGAGACATGAATCCATCCCA: the binding signal (log2 normalized intensity) was -1.23.

As for TTTCTGTATAAGACAACCTTTGTTCACAGT, the binding signal (log2 normalized intensity) worked out at 4.

For TAGAGCTGTCCAGCAGACAATGGGAGACAT, the binding signal (log2 normalized intensity) was -1.3.

As to ACTCACACACCCCAAAAGGTCAATCTGGAT, the binding signal (log2 normalized intensity) was determined as 3.9.

For TGAGCTCTGATGGCGTATGCAGCAGGGCAG, the binding signal (log2 normalized intensity) was -1.35.

As to GATCAAAGAATTCCTAATAATACTGACTGA, the binding signal (log2 normalized intensity) is -1.13.

On to AAAAGCCAAGGCATCTGGGGGCTTGTCAGA, for which the binding signal (log2 normalized intensity) was -1.31.

For the sequence GGCAGTAAGATAAGGAGGTAGAGTCTAAGG, the binding signal (log2 normalized intensity) is -1.35.

In the case of TCAGATAGCTTTAGCCGGACTTTGTCCTTT, the binding signal (log2 normalized intensity) came to 8.54.

In the case of GCCGTGCATGCTTGGACTCTGAAGGAATGT, the binding signal (log2 normalized intensity) turned out to be 2.29.

TGTTAGAGGGTGGTGGGTGAAGGATGGAAT: the binding signal (log2 normalized intensity) came to 0.332.

Regarding TAATTACAGAGCAAGTAGAGCTGCTTACAT, the binding signal (log2 normalized intensity) was -1.34.

As to AGGAGTTTGTTCACCCACCAGAGGGAACGC, the binding signal (log2 normalized intensity) was -1.19.

Turning to GGTTCACCGCTCACTGCTCCAGCCACTCAT, the binding signal (log2 normalized intensity) is -1.02.

For the sequence GTGGCTAGGACCTTTGAACCAGAGAAGATT, the binding signal (log2 normalized intensity) was determined as 4.11.

Turning to AGTATCTTAGCCAAAGAGAAGCCTAAGCAG, the binding signal (log2 normalized intensity) was -1.35.

On to CTGTGTCATCTGAACTCTGACCAACGCCTC, for which the binding signal (log2 normalized intensity) was found to be 3.23.

Regarding CAGCAGACACGGGCAGGTGAGAGGGCTCTG, the binding signal (log2 normalized intensity) was -1.33.

For CTAGCTACTAGCCATTTCGGCACCTTCTAC, the binding signal (log2 normalized intensity) is -1.35.

Take TCAAGGACCTGCTCTGGGGCTACCTCAGGG: the binding signal (log2 normalized intensity) was -1.48.

As to ATGTAAGGCACTTTATCTAGATAAGTTTAT, the binding signal (log2 normalized intensity) was -1.26.

Take CATGGACAGCACTTAGGGTTCAAAGGTTGT: the binding signal (log2 normalized intensity) is 6.85.

Turning to ACCATGGATGCACTCCATTTACAGACCAAT, the binding signal (log2 normalized intensity) is -1.31.

As for TCAAGAAGGGCAGTTGACAGAGGACCAAGG, the binding signal (log2 normalized intensity) is -1.38.

For the sequence TGTTCATACTGCAGCTCTGCGTCTTACTAA, the binding signal (log2 normalized intensity) is -1.08.

As for GCAGCTCCAATTAGGAGATCAGCCCGTGTC, the binding signal (log2 normalized intensity) is -1.36.

For TTTACCGAAATGTGGGTGAGGCTGTGATGT, the binding signal (log2 normalized intensity) came out at 1.33.

For the sequence GGTTCAGCTCCATCTGAACTCTTCATGGAC, the binding signal (log2 normalized intensity) is 1.79.

In the case of CCTGTCACTCAATGCAGCAGCATTGGACCC, the binding signal (log2 normalized intensity) worked out at 6.

As for CCTAGGTGCTGAAGATGCAACAGTGACCCA, the binding signal (log2 normalized intensity) amounted to 3.1.

Consider TCCAATTAGGAGATCAGCCCGTGTCTGGGC, for which the binding signal (log2 normalized intensity) is -1.21.

As to CTTAGGGTCAATGGGACATTGCATTCCACC, the binding signal (log2 normalized intensity) came to 1.64.

TGTCGTTTTCCCGGTTTGTTCCATGCCACA: the binding signal (log2 normalized intensity) came out at 1.67.

Turning to ATAGCGTCTCCTGGCCTCTGTGAAGTGGAG, the binding signal (log2 normalized intensity) is -0.781.

Regarding CAGGCCTAACCCCTAACCCAGTGAATTCCT, the binding signal (log2 normalized intensity) was 2.67.

As for CTGGATGTTTTGATGAACTTTCAAGATGAA, the binding signal (log2 normalized intensity) is 1.71.

In the case of TTGCTGTCTCTTCCACCTGGAATGCACTTG, the binding signal (log2 normalized intensity) turned out to be 1.67.

For the sequence GGGAGGTGTTTATCTTGTGGTTGGAATGTT, the binding signal (log2 normalized intensity) is 2.45.

On to CCCCGCGTCCGTGCACCCTTCCTCTGCAGC, for which the binding signal (log2 normalized intensity) came to 0.846.

On to CTTTCGCCCTTTGTCCTATGACTCTCTCAA, for which the binding signal (log2 normalized intensity) is 3.75.

As for TGAGCACACACTCACGGACCCTGTTACCAC, the binding signal (log2 normalized intensity) is 0.686.

As to ACAGATGGTGACCAGACTACCTCTTTAGGC, the binding signal (log2 normalized intensity) was -1.21.

Turning to GACCTACTTAGTCTCCAGCCCCCAGAGGTC, the binding signal (log2 normalized intensity) came to 4.63.

For the sequence CCAAGAACAAACAAAAACCAAAAAAACTTA, the binding signal (log2 normalized intensity) is -1.41.

In the case of AGCATCTAAACCTCTGCACACAGGATGTTT, the binding signal (log2 normalized intensity) is -1.46.

For the sequence TGCTGTCTAGAAAGATTGCAGCAAGGAATT, the binding signal (log2 normalized intensity) is -1.25.

For CTCCACTACATTAGCAGCGCCACCAACCAT, the binding signal (log2 normalized intensity) is 4.03.

With GGAGATAACCCATCTGGGGAAAGTGCAAGG, the binding signal (log2 normalized intensity) was -1.21.

On to AGGGAGCAGAGTCCCAAGCATCTCTGAGCA, for which the binding signal (log2 normalized intensity) was -1.27.

Values taken from paper PMC10726135.
